Test results taken from the supplement of paper PMC3334620.
Over roughly 33,000 sequences, “E-score (-0.5 to 0.5)” has its median near -0.032; the highest 2% begin near 0.36. The list shows a part of the results.

target: T1, Sko1 (UniProt Q02100); assay: PBM E-score (8-mer binding enrichment) (E-score (-0.5 to 0.5)); higher = stronger / more preferred TF binding; most listed sequences are background and not binding sites; settings: protein concentration: 200 nM; construct: GST-full length
T1 sequence: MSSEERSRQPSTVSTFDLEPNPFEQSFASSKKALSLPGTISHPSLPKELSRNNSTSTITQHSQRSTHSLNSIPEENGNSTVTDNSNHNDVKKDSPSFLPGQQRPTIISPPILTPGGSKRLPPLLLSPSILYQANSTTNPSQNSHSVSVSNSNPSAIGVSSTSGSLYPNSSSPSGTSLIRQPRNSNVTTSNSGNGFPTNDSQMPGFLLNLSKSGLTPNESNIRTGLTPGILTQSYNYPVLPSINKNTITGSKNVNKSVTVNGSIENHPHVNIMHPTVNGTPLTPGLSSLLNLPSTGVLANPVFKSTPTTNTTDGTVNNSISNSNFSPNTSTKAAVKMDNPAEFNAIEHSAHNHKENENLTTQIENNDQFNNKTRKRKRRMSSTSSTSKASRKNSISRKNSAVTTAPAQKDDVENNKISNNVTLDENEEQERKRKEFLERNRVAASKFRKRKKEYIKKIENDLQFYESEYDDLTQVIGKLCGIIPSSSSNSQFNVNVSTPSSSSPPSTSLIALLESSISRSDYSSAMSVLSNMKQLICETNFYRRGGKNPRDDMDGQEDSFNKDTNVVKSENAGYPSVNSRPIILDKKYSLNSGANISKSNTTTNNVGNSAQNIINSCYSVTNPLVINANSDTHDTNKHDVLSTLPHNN
Procedure, shortened: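 Yeast transcription factors, full-length or as DNA-binding domains, were expressed with a GST tag using PURExpress in vitro transcription/translation. At about 100-200 nM they were applied to universal all-10-mer Agilent arrays, double-stranded by primer extension on fresh or once-stripped slides. Fluorescent anti-GST detected bound protein, and masliner normalised the scans. E-scores for ungapped eight-base words, pooled with reverse complements, came from the Universal PBM Analysis Suite.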

Sequence | PBM E-score
ATAGTTAC | 0.212
AATTGTGG | 0.0768
ATATACCC | -0.0622
ATGAGAAT | 0.14
CGCGAGCG | -0.0364
AAGACACT | -0.0347
AGGTCTGG | -0.0636
CTATACAG | -0.132
CGCACGAG | -0.0949
AGTTCTTA | -0.0476
CGGTGCGC | -0.256
CACTGCTC | -0.0831
CACGTCTA | 0.314
GGTTATAC | 0.0927
AATCTTTC | -0.106
GCACCCTA | -0.0839
AATCCGTA | -0.103
AATCACTG | 0.0768
GTATGAAC | 0.149
ATACACTG | 0.0799
ACACTCGG | 0.0335
GCTGGGAC | -0.233
GACATACC | 0.114
AGAAAGCT | 0.0478
GGGACTGA | -0.275

Sequence | PBM E-score
CTGGATGA | 0.015
CCGCTAGA | -0.305
AGAAGGTG | -0.178
AGTAGGAG | -0.306
GGGGTAAA | -0.162
AACAGTCC | -0.273
AGATCGCA | -0.0963
ACGGACCT | -0.204
GGCGGGCA | -0.129
AGGAAGCG | -0.138
AGGCATCA | -0.161
CGAAGAGA | 0.0981
ACGCCCAG | -0.0834
CCGCACCC | 0.0222
CGCCGACC | -0.214
TCAGATAA | 0.208
CTGGGTAC | -0.0841
AGTGGAAC | -0.175
AGGTCACT | -0.0104
ACGGTAGG | -0.189
AGCGAACC | 0.0124
TCCGTAGA | -0.15
TAAACCTA | 0.144
CAGGCTTA | -0.117
AATCATCC | 0.0418

Sequence | PBM E-score
AAACCGTA | -0.0212
ATTCGCTA | 0.0716
GATATAGA | -0.0929
CATACGGC | -0.0208
AGGGCGCC | -0.326
CTCATCAA | 0.0648
ATGATCTA | 0.31
CGATAGCA | -0.0372
CGACCCCA | -0.0158
CTCAACCA | -0.154
ACGGTTGG | -0.0912
ACTAGGCT | -0.173
CACGCACC | 0.115
ACCAGTAC | 0.0273
AGGCTAGA | -0.234
CTGTCTGC | -0.25
CCTTCTAG | -0.127
ACTCTCGA | 0.0797
AGCTAGGG | -0.206
CAGCCCAC | -0.12
GCGGGGCC | -0.373
ACAGTCCG | -0.182
CGTATTAA | 0.362
ACCCTATG | -0.0956
ACTAAGTC | -0.0703

Sequence | PBM E-score
CCCGGCCC | -0.424
TATAAAGA | 0.132
ACTATCGC | 0.0246
AAAGCTGT | -0.0182
GCCAATAA | 0.0824
CTTCTTAC | 0.0329
AATACGAG | 0.244
AATGAACG | 0.205
AACCATCC | -0.217
AACCTACC | -0.193
CAGGCTCC | -0.335
AACAAAAT | 0.199
AGGAGGAC | -0.197
CCGCTCTA | -0.087
CAATGGGG | -0.157
CTGGGGGA | -0.207
CGAACACC | -0.175
CATAGTTC | 0.0165
GCATGGCC | -0.276
TCGTACGA | 0.282
GCCTTCCC | -0.258
AACCACGG | -0.0682
ATATAATC | 0.143
ATTGGGCC | -0.0649
CCCAGCGG | -0.201

Sequence | PBM E-score
CGGCATTA | 0.0285
CGCATTAA | 0.134
AACCTTGG | 0.018
CCTCCTGC | -0.139
CTGGACAA | -0.13
CAACCCAG | -0.271
ACCACCGA | -0.228
CGACAAAA | 0.231
GGTTTTGA | 0.0821
GGTTCAGA | -0.119
AGTGCGAT | -0.0258
TCTGCCCA | -0.129
TCCAGAGA | -0.144
CCGATACC | -0.114
TCAATAAA | 0.123
AGAGGACC | -0.3
CTTTTGGA | -0.0608
CCCTCACA | -0.176
ACCATCTC | -0.122
ATTCAGGA | -0.00648
CCATATGA | 0.139
ATAGAGGC | -0.174
AAAGAACT | -0.0725
GCATGGTA | 0.0146
CTTCACGA | -0.118

Sequence | PBM E-score
AGTATCGC | -0.0842
GTATCGAA | 0.192
CTTTTCGA | 0.103
TATTCGCA | 0.221
CGAACAAA | 0.0899
CCCACCGC | -0.0379
GACCTCAA | 0.0183
CAGCGAAG | -0.283
ATCTCCTG | -0.157
GCGGCGCC | -0.109
CAACCGAG | -0.162
ATTGTTCG | 0.217
GCACGCCA | 0.0396
GCTCGAAA | -0.125
TCTCTAAA | -0.107
GCAGGGTA | -0.0477
TGGACACA | -0.0691
ATGAGGTG | 0.205
AATCCCTG | -0.307
TTTATAAA | 0.214
ACTGGAAC | -0.0269
ACGATAAC | 0.167
ACTACACT | -0.115
ATCGCTCG | -0.146
AAGCCAGT | -0.146

Sequence | PBM E-score
AGTCGATG | -0.0411
AAGACGAG | -0.189
CGATGATC | 0.0811
ATGTCACG | 0.325
AGGGAGGC | -0.0958
ACTCGCGG | -0.132
GAGGCAAA | -0.0527
AGCGTTGA | -0.1
GACGGTGC | -0.0817
GTGGCCAC | 0.127
CGGTTAAA | -0.162
ACTGCATC | 0.127
GAGGTTGA | -0.0232
CCTAGCGA | -0.195
ATTATAAA | 0.116
AAGCCCCG | -0.177
GACTCAGA | -0.205
AATTTGAC | 0.214
CAGACCAC | -0.0177
TACCGAGA | -0.0792
TTGAGCAA | -0.0443
GCAGAGAC | -0.162
